According to PubChem BioAssay AID588855 (National Center for Advancing Translational Sciences (NCATS), 2011):
Hit rate of the full screen: of about 410,000 compounds, about 5,000 (1.2%) were called active. The inconclusive results got no clear call from the source; some entries with a clear call stand among them for comparison. Calls come from the whole dose curve; as a rule, active = well fitted inhibition curve with a large enough effect; inconclusive = small, poorly fitted or top-dose-only effect; inactive = no such curve, though single readings can be large or run the other way. Potencies of inconclusive entries are doubtful fits and often do not repeat.
% is set by controls: 0 for no effect and ±100 for the full control effect; potency is the fitted concentration of half-maximal effect; tags give direction and shape of the fitted curve.

Assay: qHTS for Inhibitors of TGF-b; note: nearly all actives have a fitted effect of over 65% in size
Conditions: HepG2 CAGA-GFP TGF-b/SMAD3 reporter, GFP fluorescence, 18 h, TGF-beta stimulated, 500 pg/mL final; series mostly up to 46.1 µM; activity, negative = inhibition: at the top concentration
Summary of the method: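 GFP signal (ex488/em500-530) from TGF-beta-stimulated HEPG2 CAGA-GFP cells, 500 pg/mL final, 18 h at 37 degrees C in DMEM plus 1% FBS, normalized to unstimulated and DMSO-stimulated controls.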
For `Cc1cc(C)nc(NC(=O)c2c(Cl)cccc2Cl)n1`, the Potency was inconclusive: 35.5 µM [inhibitor, partial curve, poor fit].
With `CCOc1ccc(-c2nc(N)nc(C)c2-c2ccc(Cl)cc2)c(O)c1` the Potency was inconclusive: 12.6 µM [inhibitor, single point].
With `CCCCN(CCCC)NC(=O)c1ccccc1` the Potency was inconclusive: 35.5 µM [inhibitor, single point].
For `CC(C)CNC(=O)C1(C)CCCCCN1Cc1ccccc1-c1ccccc1` (configuration not stated), the Potency was inconclusive: 31.6 µM [inhibitor, single point].
In the case of `CCC(=O)Nc1c2c(nn1-c1cccc(Cl)c1)CSC2`, the Potency is reported as inconclusive: 3.98 µM [inhibitor, partial curve, poor fit].
In the case of `Cc1ccc(-c2noc(CCCC(=O)NCc3ccco3)n2)cc1`, the Potency is reported as inconclusive: 1.26 µM [inhibitor, full curve, poor fit].
In the case of `Cn1c2ccccc2c(=O)c2c(=O)n(C3CCCCCC3)c(C3CCCCC3)nc21`, the Potency is reported as inconclusive: 6.31 µM [inhibitor, single point].
For `COc1ccccc1-c1c(C)nn2c(N3CCCCCC3)cc(C)nc12`, the Potency was active: 11.2 µM.
For `COc1ccc(NC(=O)Cn2cnc3ccc(S(=O)(=O)N4CCC(C)CC4)cc3c2=O)cc1OC`, the Potency was inconclusive: 1 µM [inhibitor, partial curve, poor fit].
With `COc1cccc(-c2nc(SCC(=O)NC3CCCC3)c(-c3ccccc3)[nH]2)c1` the Potency was inconclusive: 20 µM [inhibitor, single point].
In the case of `Cc1ccc(S(=O)(=O)NNC(=O)c2ccc(F)cc2)cc1`, the Potency is reported as inconclusive: 35.5 µM [inhibitor, single point].
With `CCOc1ccc(-c2nc(SCC(=O)NC3CCCC3)c(-c3ccccc3)[nH]2)cc1OC` the “activity, negative = inhibition” value was inactive: -18.3%.
In the case of `CCOc1ccc(CCNC(=O)c2[nH]c(C)c(C(C)=O)c2C)cc1OCC`, the “activity, negative = inhibition” value is reported as inactive: -1.62%.
In the case of `CCOc1ccc(NC(=O)/C=C\C(=O)N(c2ccc(C(C)C)cc2)C(C(=O)NCc2ccco2)c2ccc(F)cc2)cc1` (configuration not stated), the Potency is reported as inconclusive: 3.16 µM [inhibitor, partial curve, poor fit].
In the case of `CC(Oc1cccc(Br)c1)C(=O)NNC(=O)c1ccccn1` (configuration not stated), the Potency is reported as inconclusive: 7.94 µM [inhibitor, partial curve].
In the case of `CCN1CCN(c2ccc(Nc3ccnc4ccccc34)cc2)CC1`, the Potency is reported as inconclusive: 35.5 µM [inhibitor, single point].
For `CC(=O)Nc1nc2c(F)cccc2s1`, the “activity, negative = inhibition” value was inactive: -10.4%.
For `COc1ccc(NC(=O)C2CCCN(S(C)(=O)=O)C2)cc1OC` (configuration not stated), the Potency was inconclusive: 35.5 µM [inhibitor, single point].
In the case of `CC(C)Oc1ccc(CNC(=O)CC(c2ccccc2)c2cc(Cl)ccc2O)cc1` (configuration not stated), the Potency is reported as inconclusive: 35.5 µM [inhibitor, single point].
In the case of `CCCC1=Nc2cc(C(=O)NCCc3ccccc3)ccc2Sc2ccc(C)cc21`, the Potency is reported as inconclusive: 1.12 µM [inhibitor, full curve, poor fit].
For `O=C(N/N=C/c1cccn1-c1ccc([N+](=O)[O-])cc1)c1cccnc1`, the Potency was inconclusive: 25.1 µM [inhibitor, partial curve, poor fit].
For `COCCN1Cc2cccc(C(=O)Nc3cccnc3)c2C1=O`, the Potency was inconclusive: 35.5 µM [inhibitor, single point].
With `COc1ccc(CNCCC(c2ccccc2)c2ccc3c(c2)OCO3)cc1` (configuration not stated) the Potency was active: 22.4 µM.
In the case of `O=C(/C=C/c1ccccc1Cl)c1ccc[nH]1`, the Potency is reported as inconclusive: 31.6 µM [inhibitor, single point].
With `Cn1c(/C=C/c2ccc([N+](=O)[O-])o2)nc2ccccc2c1=O` the Potency was active: 2.24 µM.
For `Cn1c(/C(C#N)=N/O)nc2ccccc21`, the Potency was inconclusive: 5.62 µM [inhibitor, single point].
For `CNC(=O)c1sccc1SCc1ccc(Cl)cc1Cl`, the Potency was inconclusive: 20 µM [inhibitor, single point].
With `CN(CC(=O)Nc1ccc(F)cc1)C(=O)COC(=O)c1ccc(-c2ccccc2)cc1` the “activity, negative = inhibition” value was inactive: -17.6%.
With `COc1cc(NC(=O)c2cn(C3CCCC3)c(=O)c3c2c2ccccc2n3C)cc(OC)c1OC` the “activity, negative = inhibition” value was inactive: -8.02%.
With `CCOc1cc2c(cc1O)C(=NO)CC1C2CCC2(C)C(O)CCC12` (configuration not stated) the Potency was inconclusive: 0.562 µM [inhibitor, full curve].
For `OC(c1ccccn1)c1c[nH]c2ccccc12` (configuration not stated), the “activity, negative = inhibition” value was inactive: 2.14%.
For `Cn1cc(S(=O)(=O)N2CCOCC2)cc1C(=O)Nc1ccc(Cl)c(C(F)(F)F)c1`, the Potency was inconclusive: 25.1 µM [inhibitor, partial curve, poor fit].
For `O=C(NCCC1CC1(Cl)Cl)c1ccc([N+](=O)[O-])cc1` (configuration not stated), the Potency was inconclusive: 3.16 µM [inhibitor, full curve, poor fit].
With `CN(C)c1ccc2c(c1[N+](=O)[O-])Cc1ccccc1-2` the Potency was inconclusive: 0.794 µM [inhibitor, full curve, poor fit].
With `COc1ccc(NC(=O)c2c(NC(=O)c3ccc(Br)cc3)sc3c2CCCC3)cc1` the Potency was inconclusive: 22.4 µM [inhibitor, single point].
For `COC(=O)c1ccc(/C=N/NC(=O)C(=O)NCC2CCCO2)cc1` (configuration not stated), the “activity, negative = inhibition” value was inactive: 3.19%.
For `Cc1cc(Cl)ccc1NC(=S)NCCC(c1ccccc1)c1ccccc1`, the Potency was inconclusive: 25.1 µM [inhibitor, single point].
With `Cc1cc(C)cc(S(=O)(=O)Cc2noc(C(=O)NCc3ccccc3)c2C(=O)NCc2ccccc2)c1` the “activity, negative = inhibition” value was inactive: 0.324%.
In the case of `O=C(Nn1c(SCc2ccc(F)cc2)nc2ccsc2c1=O)c1ccccc1`, the Potency is reported as active: 11.2 µM.
With `Nc1ncnc2c1ncn2[C@@H]1O[C@H](C(=O)NCc2ccc(OC(F)(F)F)cc2)[C@@H](O)[C@H]1O` the Potency was inconclusive: 6.31 µM [inhibitor, full curve].
In the case of `CCC(=O)N1CCc2cc(Br)cc(S(=O)(=O)CCC(=O)N(CC)CC)c21`, the “activity, negative = inhibition” value is reported as inactive: -0.773%.
For `CCOC(=O)N1CCN(C(=O)/C(=C/c2cccc3ccccc23)NC(=O)c2ccc(OC)c(OC)c2)CC1`, the Potency was inconclusive: 35.5 µM [inhibitor, single point].
For `COc1ccc(N/C(C)=C/C(=S)Nc2ccccc2)cc1`, the Potency was inconclusive: 35.5 µM [inhibitor, single point].
With `O=C(Nc1ccc2c(c1)oc1ccccc12)C1CC1` the “activity, negative = inhibition” value was inactive: -5.04%.
In the case of `Cc1ccc2c(c1)N(CCC(=O)NCc1ccccc1Cl)C(=O)CO2`, the Potency is reported as inconclusive: 35.5 µM [inhibitor, single point].
In the case of `CCOC(=O)N1CCN(C(c2cccnc2)c2ccc3cccnc3c2O)CC1` (configuration not stated), the Potency is reported as inconclusive: 22.4 µM [inhibitor, single point].
With `COc1ccc(-c2cnn3cc(-c4cccc(Cl)c4)cnc23)cc1` the “activity, negative = inhibition” value was inactive: 2.78%.
With `CCN(c1ccccc1)S(=O)(=O)c1cccc(C(=O)NCc2ccccc2CN2CCOCC2)c1` the Potency was inconclusive: 4.47 µM [inhibitor, partial curve].
In the case of `COc1ccc(-c2nc(CCNS(=O)(=O)c3ccc4c(c3)OCCO4)cs2)cc1`, the Potency is reported as inconclusive: 35.5 µM [inhibitor, single point].
For `COC(=O)c1ccc(Oc2nc(C)cc(Oc3ccccc3)n2)cc1`, the “activity, negative = inhibition” value was inactive: -5.3%.
In the case of `CC(C)(C)c1ccc(Cn2c(=N)n(CC(O)c3ccco3)c3ccccc32)cc1` (configuration not stated), the Potency is reported as active: 15.8 µM.
With `Cc1ccc(Cl)cc1N(C)C(=O)c1cn(C2CCCCC2)c(=O)c2c1c1ccccc1n2C` the Potency was inconclusive: 3.55 µM [inhibitor, single point].
For `COc1ccc(OC)c(NC(=O)c2cc(OC(C)=O)cc(C(=O)Nc3cc(OC)ccc3OC)c2)c1`, the Potency was inconclusive: 35.5 µM [inhibitor, single point].
For `COc1ccc(N(C(=O)c2cccc(C)c2)S(=O)(=O)c2ccc(Cl)cc2)cc1`, the Potency was inconclusive: 20 µM [inhibitor, partial curve, poor fit].
For `CC(C)CCNC(=O)c1cnc2sc(N3CCCCC3)nn2c1=O`, the “activity, negative = inhibition” value was inactive: -5.07%.
For `Cc1cccc(OCC(=O)NNC(=O)c2cc3ccccc3oc2=O)c1`, the Potency was inconclusive: 25.1 µM [inhibitor, partial curve, poor fit].
For `CC(C)C1Cc2c(C#N)c(N)sc(=S)c2CO1` (configuration not stated), the Potency was inconclusive: 35.5 µM [inhibitor, partial curve, poor fit].
With `CN(CC(=O)Nc1ccccc1Br)C(=O)c1cccnc1Nc1cccc(C(F)(F)F)c1` the Potency was inconclusive: 20 µM [inhibitor, partial curve, poor fit].
In the case of `O=C(NCc1ccccc1)Nc1cccn(Cc2ccccc2)c1=O`, the Potency is reported as inconclusive: 6.31 µM [inhibitor, full curve].
With `O=[N+]([O-])c1ccc(-c2ccc(/C=N/Nc3nc(N4CCCCC4)nc(N4CCCCC4)n3)o2)cc1` the “activity, negative = inhibition” value was inactive: 3.31%.
In the case of `Cc1ccc(-c2nnc(COC(=O)c3ccco3)o2)cc1`, the “activity, negative = inhibition” value is reported as inactive: -3.6%.
With `Cc1ccc(S(=O)(=O)N=S(CCO)CCO)cc1` the “activity, negative = inhibition” value was inactive: -4.46%.
For `COC(=O)c1cccc(-n2[nH]nnc2=S)c1`, the Potency was inconclusive: 0.0891 µM [inhibitor, full curve, poor fit].
For `Cc1ccc2[nH]c3c(N4CCN(Cc5ccccc5)CC4)ncnc3c2c1`, the Potency was inconclusive: 35.5 µM [inhibitor, single point].
With `CC(NC(=O)C1CCN(c2nc3ccccc3nc2C(F)(F)F)CC1)c1ccccc1` (configuration not stated) the Potency was inconclusive: 0.224 µM [inhibitor, full curve, poor fit].
With `CC#CC[N+](C)(C)CCCCCCCCCCCC` the Potency was inconclusive: 28.2 µM [inhibitor, partial curve, poor fit].
In the case of `CCCCN(CC)CCCNC(=O)Nc1sc2nc3n(c(=O)c2c1C)CCC(C)CC3` (configuration not stated), the Potency is reported as inconclusive: 35.5 µM [inhibitor, single point].
